Assay results reported in the supplement of paper PMC12340641.
In all, about 1,000 compounds were measured (“relative growth in counter assay (no AraC = 100%, AraC + DMSO = 0%)”: median about -1.1, highest 2% from about 20 on). The list shows a part of the results.

Tested on: HEK293FT dCK*-only
Assay: relative growth in counter assay (no AraC = 100%, AraC + DMSO = 0%); higher = more growth rescue independent of IKZF1
Conditions: compound concentration: 5 uM; AraC concentration: 0.3 uM; overnight pretreatment + 4 days AraC
Protocol: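 Growth recovery screen of the molecular-glue-like (Specs) library. HEK293FT cells expressing a dCK*-IKZF1 fusion (primary) or dCK* alone (counter) were pretreated overnight with compound at 5 uM, then given 0.3 uM AraC for 4 days. Hoechst nuclei were counted by imaging. Primary: normalised to pomalidomide (100%) and DMSO (0%), mean of 2 replicates. Counter: normalised to no-AraC (100%) and AraC+DMSO (0%), single replicate.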

Structure (SMILES) | relative growth in counter assay [%]
CC(=O)Nc1ccc(Oc2ccc3c(c2)C(=O)N(c2cccc(C)c2)C3=O)cc1 | -8.86
O=C1CCC(N2C(=O)c3cccc(NCc4ccc(C(=O)O)cc4)c3C2=O)C(=O)N1 (stereo not drawn) | 2.66
CNC(=O)C1(c2cccc(Nc3ncc(C)s3)n2)CCN(C(=O)C2CCCCC2)CC1 | -21.2
COc1cc(NS(=O)(=O)c2ccc(Nc3nc(-c4ccc(Cl)cc4)cs3)cc2)nc(OC)n1 | -1.17
Cc1cnc(Nc2cccc(C3CN(C(=O)Cn4cnc5ccccc54)CCO3)n2)s1 (stereo not drawn) | -16.3
CC(Oc1ccccc1)C(=O)Nc1ccc(S(=O)(=O)Nc2ncccn2)cc1 (stereo not drawn) | 0.06
Cc1cc(C)nc(NS(=O)(=O)c2ccc(NC(=O)COc3ccccc3Cl)cc2)n1 | -1.6
Cc1csc(Nc2cccc(C3CCCN3C(=O)c3ccc4[nH]c(C(C)C)nc4c3)n2)n1 (stereo not drawn) | 30.5
CC(=O)c1ccc(N2C(=O)c3ccc(Oc4ccccc4)cc3C2=O)cc1 | -22.4
COc1ccc2[nH]c3nc(SCC(=O)Nc4cc(Cl)ccc4OC)nnc3c2c1 | -15.7
Cc1ccc2[nH]c3nc(SCC(=O)Nc4ccc(F)cc4)nnc3c2c1 | 4.95
COc1cc(NS(=O)(=O)c2ccc(NC(=S)NC(=O)/C=C/c3ccccc3)cc2)nc(OC)n1 | -4.27
COc1cccc(C(=O)Nc2ccc(S(=O)(=O)Nc3cc(C)nc(C)n3)cc2)c1 | 0.7
O=C(Cc1cccs1)Nc1ccc(Oc2ccc3c(c2)C(=O)N(c2ccc(O)cc2)C3=O)cc1 | -1.16
CC(C)C(=O)Nc1ccc(C(=O)Nc2ccc(S(=O)(=O)Nc3ncccn3)cc2)cc1 | -9.03
O=C(CSCc1ccccc1)Nc1ccc(S(=O)(=O)Nc2ncccn2)cc1 | 3.78
CCOc1ccc(/C=C/C(=O)Nc2ccc(S(=O)(=O)Nc3cc(C)nc(C)n3)cc2)cc1OC | -8.34
Cc1ccc(NC(=O)CSc2nnc3c(n2)[nH]c2ccc(F)cc23)cc1Cl | -1.21
COc1ccc2[nH]c3nc(SCC(=O)Nc4cccc(F)c4)nnc3c2c1 | -13.9
Cc1cnc(Nc2cccc(C3CN(C(=O)C4C5CCCCC54)CCO3)n2)s1 (stereo not drawn) | -3.98
Cc1ccc(C)c(OCC(=O)Nc2ccc(S(=O)(=O)Nc3ncccn3)cc2)c1C | -12.5
Cc1cc(Cl)ccc1OCCCC(=O)Nc1ccc(S(=O)(=O)Nc2ncccn2)cc1 | -5.75
Cc1ccc(OCC(=O)Nc2ccc(S(=O)(=O)Nc3cc(C)nc(C)n3)cc2)c(C)c1 | -2.7
COc1ccc(CC(=O)Nc2ccc(S(=O)(=O)Nc3cc(OC)nc(OC)n3)cc2)cc1 | 4.05

Structure (SMILES) | relative growth in counter assay [%]
COCC(=O)Nc1ccc(S(=O)(=O)Nc2ccccn2)cc1 | -0.55
Cc1cc(C)cc(OCC(=O)Nc2ccc(S(=O)(=O)Nc3cc(C)nc(C)n3)cc2)c1 | 7.68
Cc1cnc(Nc2cccc(C3CCN(C(=O)C4CCCCC4C(=O)N4CCCC4)CC3)n2)s1 (stereo not drawn) | -22.8
CC(C)c1ccccc1OCC(=O)Nc1ccc(S(=O)(=O)Nc2ccccn2)cc1 | -2.81
Cc1ccnc(NS(=O)(=O)c2ccc(NC(=O)Cc3c(F)cccc3Cl)cc2)n1 | 10
CNc1cc(C(=O)N2CCOC(c3cccc(Nc4nc(C)c(C)s4)n3)C2)ccn1 (stereo not drawn) | 10.5
O=C1CCC(N2C(=O)c3cccc(O)c3C2=O)C(=O)N1 (stereo not drawn) | 2.54
O=C(CCC1CCCCC1)Nc1ccc(S(=O)(=O)Nc2ncccn2)cc1 | -4.09
Cc1cc(NS(=O)(=O)c2ccc(NC(=O)c3ccccc3C)cc2)nc(C)n1 | 3.02
Cc1cc(NS(=O)(=O)c2ccc(NC(=O)COc3ccccc3Cl)cc2)nc(C)n1 | -6.2
O=C(Nc1ccc(S(=O)(=O)Nc2ncccn2)cc1)c1ccc2c(c1)OCO2 | -0.73
COc1cc(NS(=O)(=O)c2ccc(NC(=O)/C=C/c3ccco3)cc2)nc(OC)n1 | 1.2
Cc1cnc(Nc2cccc(C(C(=O)N(C)C)C3CCN(C(=O)c4cccc(Cl)c4F)CC3)n2)s1 (stereo not drawn) | 6.99
CCOC(=O)c1nc[nH]c1C(=O)N1CCOC(c2cccc(Nc3ncc(C)s3)n2)C1 (stereo not drawn) | -2.22
CCc1nccn1CC(=O)N1CCOC(c2cccc(Nc3ncc(C)s3)n2)C1 (stereo not drawn) | -1.5
Cc1cnc(Nc2cccc(C3CCN(C(=O)C4CC(=O)N(C)C4)CC3)n2)s1 (stereo not drawn) | -12
O=C(CN1C(=O)c2ccccc2C1=O)Nc1ccc(S(=O)(=O)Nc2ncccn2)cc1 | -1.34
COc1ccc(OCCCC(=O)Nc2ccc(S(=O)(=O)Nc3nc(C)cc(C)n3)cc2)cc1 | -2.05
Cc1cc(C)nc(NS(=O)(=O)c2ccc(NC(=O)CCCOc3ccc(Cl)cc3)cc2)n1 | -2.13
Cc1cc(C)nc(NS(=O)(=O)c2ccc(NC(=O)c3ccccc3C(=O)O)cc2)n1 | 0
Cc1ccnc(NS(=O)(=O)c2ccc(NC(=O)C3CCCCC3)cc2)n1 | -6.81
Cc1cnc(Nc2cccc(C3CN(C(=O)Cn4c(CC(C)C)nc5ccccc54)CCO3)n2)s1 (stereo not drawn) | -19.8
Cc1cccc(C(=O)Nc2ccc(S(=O)(=O)Nc3cc(C)nc(C)n3)cc2)c1 | 3.02
O=C1CCC(N2C(=O)c3cccc(Br)c3C2=O)C(=O)N1 (stereo not drawn) | 11.1

Structure (SMILES) | relative growth in counter assay [%]
CC(=O)Nc1ccc(Oc2ccc3c(c2)C(=O)N(c2cccc(OC(C)=O)c2)C3=O)cc1 | 13.4
O=C(CCCOc1ccccc1)Nc1ccc(S(=O)(=O)Nc2ccccn2)cc1 | 1.5
CO[C@H]1CC[C@H](C(=O)N2CCOC(c3cccc(Nc4ncc(C)s4)n3)C2)CC1 (stereo partly drawn) | -1.98
Cc1cc(C)nc(NS(=O)(=O)c2ccc(NC(=O)CCN3C(=O)c4ccccc4C3=O)cc2)n1 | -7.05
O=C(NCc1cnc(Nc2cccc(C3CCN(C(=O)C4CCCCC4)CC3)n2)s1)c1cccc(F)c1 | -9.34
CCC(=O)Nc1ccc(Oc2ccc3c(c2)C(=O)N(c2ccc(O)cc2)C3=O)cc1 | -5.77
COc1ccc(NS(=O)(=O)c2ccc(NS(=O)(=O)c3ccccc3[N+](=O)[O-])cc2)nn1 | -1.87
Cc1cnc(Nc2cccc(C3CCN(C(=O)CC4(O)CCCCC4)CC3)n2)s1 | -22.4
Cc1cc(C)nc(NS(=O)(=O)c2ccc(NC(=O)COc3ccc4ccccc4c3)cc2)n1 | -1.85
COCC(=O)N1CCCC1c1cccc(Nc2nc(C)cs2)n1 (stereo not drawn) | -10.8
Cc1cc(C)nc(SCC(=O)Nc2ccc(S(=O)(=O)Nc3ncccn3)cc2)n1 | 19.9
COc1cc(NS(=O)(=O)c2ccc(NC(=O)c3ccccc3)cc2)nc(OC)n1 | 2.14
Cc1ccc(C(C)(C)C(=O)N2CCCC2c2cccc(Nc3ncc(C)s3)n2)cc1 (stereo not drawn) | -21
CCCc1cnc(Nc2cccc(C3CCN(C(=O)CN(C)C)CC3)n2)s1 | -21.5
Cc1ccnc(NS(=O)(=O)c2ccc(NC(=O)CCCc3ccccc3)cc2)n1 | 0.72
Cc1ccnc(NS(=O)(=O)c2ccc(NC(=O)c3ccc(-c4ccccc4)cc3)cc2)n1 | 0.76
COc1cc(NS(=O)(=O)c2ccc(Nc3nc(-c4sc(C)nc4C)cs3)cc2)nc(OC)n1 | 4.44
Cc1cnc(Nc2cccc(C3CCN(C(=O)C4(NC(=O)CC(C)(C)C)CCCCC4)CC3)n2)s1 | -20.4
CC(C)C(C(=O)Nc1ccc(S(=O)(=O)Nc2ncccn2)cc1)N1C(=O)c2ccccc2C1=O (stereo not drawn) | 2.48
Cc1cnc(Nc2cccc(C3CCN(CC(=O)Nc4ccc(F)cc4)CC3)n2)s1 | -18
Cc1ccc(S(=O)(=O)Nc2ccc(S(=O)(=O)Nc3nccc(C)n3)cc2)cc1 | -5.66
Cc1cc(C)nc(NS(=O)(=O)c2ccc(NC(=O)CSc3nnnn3-c3ccccc3)cc2)n1 | 1.47
COc1ccccc1CCC(=O)N1CCCC1c1cccc(Nc2nc(C)cs2)n1 (stereo not drawn) | 2.36
Cc1cnc(Nc2cccc(C3CCN(C(=O)C4CCCC(C)C4)CC3)n2)s1 (stereo not drawn) | -17.5

Structure (SMILES) | relative growth in counter assay [%]
O=C(C1CCCCC1)N1CCOC(c2cccc(Nc3ncc(Cc4cccc(Cl)c4)s3)n2)C1 (stereo not drawn) | 13.1
O=C(CCc1cccc(Cl)c1)N1CCOC(c2cccc(Nc3nccs3)n2)C1 (stereo not drawn) | 19.5
CC(C)(C)C(=O)Nc1ccc(S(=O)(=O)Nc2ncccn2)cc1 | -0.18
Cc1ccnc(NS(=O)(=O)c2ccc(NC(=O)c3ccc4c(c3)OCO4)cc2)n1 | 3.33
COc1cc(NS(=O)(=O)c2ccc(NCc3ccccc3O)cc2)nc(OC)n1 | -0.72
CCOC(=O)CN(C(=O)CSc1nnc2c(n1)[nH]c1ccc(OC)cc12)c1ccc(F)cc1 | 1.26
Nc1ccc(S(=O)(=O)Nc2nccc(/C=C/c3ccc(Br)s3)n2)cc1 | -0.05
CCCCc1cnc(Nc2cccc(C3CCN(C(=O)C4(C)CCCN4C(=O)OC(C)(C)C)CC3)n2)s1 (stereo not drawn) | 5.27
CC(C)c1ccc(OCC(=O)Nc2ccc(S(=O)(=O)Nc3ncccn3)cc2)cc1 | -2.94
Cc1cc(C)nc(NS(=O)(=O)c2ccc(NC(=O)CSc3nc(C)cc(C)n3)cc2)n1 | -6.83
O=C(C1CCCCC1)N1CCOC(c2cccc(Nc3ncc(Cc4ccc(Cl)cc4)s3)n2)C1 (stereo not drawn) | 2.81
Cc1cnc(Nc2cccc(CC3CCN(C(=O)c4ccccc4F)CC3)n2)s1 | -15.7
CCCCc1cnc(Nc2cccc(C3CCN(C(=O)C4CCCCC4)CC3)n2)s1 | -18.2
CNCC(=O)N1CCC(c2cccc(Nc3ncc(-c4cccnc4)s3)n2)CC1 | -23.5
O=S(=O)(Nc1ncccn1)c1ccc(-n2cccc2)cc1 | -10.3
O=C(O)CCOCCOCCOCCOCCNc1ccc2c(c1)C(=O)N(C1CCC(=O)NC1=O)C2=O (stereo not drawn) | 9.95
Cc1cnc(Nc2cccc(CC3CCN(C(=O)c4ccccc4)CC3)n2)s1 | -4.86
Cc1cc(C)nc(NS(=O)(=O)c2ccc(NS(=O)(=O)/C=C/c3ccccc3)cc2)n1 | 5.62
CCOCCC(=O)Nc1ccc(S(=O)(=O)Nc2nccc(C)n2)cc1 | -2.85
Cc1ccnc(NS(=O)(=O)c2ccc(NS(C)(=O)=O)cc2)n1 | -0.67
Cc1csc(Nc2cccc(C3CCCN3C(=O)CC3CC(C)(C)NC(C)(C)C3)n2)n1 (stereo not drawn) | 4.79
